Measured values published in PubChem BioAssay AID488969 (Vanderbilt High Throughput Screening Facility, 2010).
Whole data set: some 110,000 compounds, median “z-score” near -0.1, cut for the highest 2% near 2. This is one part of the list. Active and inactive are the calls of the source.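 Rule for the calls: active = z-score in the third read window above 3 or below -3; inactive = the rest.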

What follows are compounds tested against Metabotropic glutamate receptor 8 (Rattus norvegicus) (UniProt P70579) (assay: rat mGluR8 modulators via GIRK flux, primary screen, cell-based, thallium flux, HTS (AID 488969)). Details: HEK293 rat mGluR8, GIRK (G protein-gated inwardly rectifying potassium channel) thallium flux, FluoZin2; at 10 µM; stronger effect = higher value; submaximal glutamate (EC20) added with thallium.
Sequence of UniProt P70579 (P70579 whole entry, looked up): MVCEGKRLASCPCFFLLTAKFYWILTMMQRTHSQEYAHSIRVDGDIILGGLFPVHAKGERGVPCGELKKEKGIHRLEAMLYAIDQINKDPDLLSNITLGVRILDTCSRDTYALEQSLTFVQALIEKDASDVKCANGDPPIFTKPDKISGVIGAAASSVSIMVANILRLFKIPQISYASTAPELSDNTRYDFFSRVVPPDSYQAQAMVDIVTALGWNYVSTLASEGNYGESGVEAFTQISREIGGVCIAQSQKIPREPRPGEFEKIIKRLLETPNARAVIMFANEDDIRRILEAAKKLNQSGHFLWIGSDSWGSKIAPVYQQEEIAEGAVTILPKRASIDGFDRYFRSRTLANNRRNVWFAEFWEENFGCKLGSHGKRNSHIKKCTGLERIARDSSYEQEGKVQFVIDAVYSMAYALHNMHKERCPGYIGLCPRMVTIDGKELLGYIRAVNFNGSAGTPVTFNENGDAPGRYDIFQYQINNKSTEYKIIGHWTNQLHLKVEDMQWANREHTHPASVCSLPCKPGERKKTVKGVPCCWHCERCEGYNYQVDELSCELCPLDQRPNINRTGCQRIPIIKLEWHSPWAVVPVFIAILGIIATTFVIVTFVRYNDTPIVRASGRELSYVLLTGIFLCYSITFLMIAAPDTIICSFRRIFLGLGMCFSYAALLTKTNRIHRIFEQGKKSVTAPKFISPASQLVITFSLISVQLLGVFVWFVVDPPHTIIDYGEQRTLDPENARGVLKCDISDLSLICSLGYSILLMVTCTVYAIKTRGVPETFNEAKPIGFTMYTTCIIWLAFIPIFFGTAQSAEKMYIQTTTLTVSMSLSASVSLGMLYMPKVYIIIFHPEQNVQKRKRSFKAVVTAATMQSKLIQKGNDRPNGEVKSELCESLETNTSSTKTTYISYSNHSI

**Q.** For `Cc1cc(C)c2nc(N3CCCN(C(=O)c4cnccn4)CC3)c(C#N)cc2c1`, which z-score is on record?
**A.** -0.232

**Q.** Which z-score does the source give for `CC(=O)c1ccc(NC(=O)Nc2cccc(Cl)c2)cc1` here?
**A.** 1.07

**Q.** With `N#Cc1cn(CC(=O)N2CCc3ccccc3C2)c2ccccc12` as the compound, how does the z-score read?
**A.** -0.372

**Q.** With `Cn1c(CN2CCN(c3ccc(Cl)cc3)CC2)nc2ccccc21` as the compound, how does the z-score read?
**A.** -0.229

**Q.** With `Cn1c(=O)c2[nH]c(N3CCOCC3)nc2n(-c2ccccc2)c1=O` as the compound, how does the z-score read?
**A.** -0.487

**Q.** For `COc1ccccc1NS(=O)(=O)c1ccc(N/N=C/c2c(C)nn(-c3ccccc3)c2N2CCCC2)c([N+](=O)[O-])c1`, which z-score is on record?
**A.** -0.652

**Q.** `COCCOc1ccc(C(F)(F)F)cc1NC(=O)c1ccccc1F` was tested. Which z-score did it give?
**A.** 0.379

**Q.** Which z-score does the source give for `COC(=O)[C@@H](NC(=O)Nc1cccc(Br)c1)C(C)C` here?
**A.** -0.134

**Q.** With `O=C(N/N=C/C1CCCCC1)c1cc(Cl)ccc1O` as the compound, how does the z-score read?
**A.** 0.618

**Q.** Which z-score does the source give for `Cc1ccccc1OCCCN1C(=O)C(=O)c2cccc(C)c21` here?
**A.** 0.12

**Q.** For `CCOC(=O)NC(=O)/C(C#N)=N/Nc1c(F)cccc1F`, which z-score is on record?
**A.** -0.809

**Q.** For `CCc1ccc(S(=O)(=O)Nc2ccc(-c3nc4cccnc4s3)cc2)s1`, which z-score is on record?
**A.** 0.709

**Q.** For `O=C(NCc1ccc(F)cc1)c1noc2c1CCCC2`, which z-score is on record?
**A.** -1.4

**Q.** With `Cc1cccc(C)c1NC(=O)CN(C)c1ccc(C(F)(F)F)cn1` as the compound, how does the z-score read?
**A.** -0.19

**Q.** How did the z-score turn out when `COc1ccc(-n2c(O)cnc2Nc2nc(C)cc(C)n2)cc1OC` was run?
**A.** 0.0663

**Q.** With `Cc1sc(NC(=O)/C=C/c2ccco2)c(C(=O)OC(C)C)c1C` as the compound, how does the z-score read?
**A.** -0.532

**Q.** Which z-score does the source give for `COc1cccc2c1C(=O)C=C(C)C2=O` here?
**A.** -0.1

**Q.** With `O=C(O)CCN1C(=O)c2ccc(NC(=O)c3cccs3)cc2C1=O` as the compound, how does the z-score read?
**A.** -0.0966

**Q.** Which z-score does the source give for `Cc1nc2nc3c(c(=O)n2[nH]1)CCCC3` here?
**A.** -0.181

**Q.** `Cc1ccc(CN(C(=O)Cn2nnc3ccccc32)C(C(=O)NCc2ccco2)c2ccc(C)o2)cc1` (stereo not drawn) was tested. Which z-score did it give?
**A.** 0.0419

**Q.** For `Cc1cc2n(n1)C(c1cccs1)Nc1ccccc1-2` (stereo not drawn), which z-score is on record?
**A.** -0.0377

**Q.** For `O=C(c1ccc(COc2ccccc2[N+](=O)[O-])o1)N1CCCCCC1`, which z-score is on record?
**A.** -0.317

**Q.** How did the z-score turn out when `CN(CC(=O)NCCC1=CCCCC1)S(=O)(=O)c1ccc2c(c1)CCC(=O)N2` was run?
**A.** -0.698

**Q.** How did the z-score turn out when `O=C(Nc1ccc(O)cc1)c1ccc2c(c1)C(=O)N(Cc1ccco1)C2=O` was run?
**A.** -0.323

**Q.** `CC(=O)N/C(=C/c1ccccc1)C(=O)NCCO` was tested. Which z-score did it give?
**A.** -0.232

**Q.** Which z-score does the source give for `Cc1csc(NC(=O)c2sc3nc(-c4cccs4)ccc3c2N)n1` here?
**A.** 0.0434

**Q.** `Cc1ccc(S(=O)(=O)N2C(=O)CCC2C(=O)NCc2ccco2)cc1` (stereo not drawn) was tested. Which z-score did it give?
**A.** 0.396

**Q.** `O=C(Nc1ccccc1)C(Cc1cccs1)c1nn[nH]n1` (stereo not drawn) was tested. Which z-score did it give?
**A.** 0.0119

**Q.** How did the z-score turn out when `CCn1cc(Br)c(C(=O)Nc2cccc(Cl)c2)n1` was run?
**A.** -0.412

**Q.** How did the z-score turn out when `CCSc1nnc(C)c2ccccc12` was run?
**A.** -0.296

**Q.** How did the z-score turn out when `CCC(=O)Nc1cc(C(C)C)c(O)cc1C` was run?
**A.** -0.0995

**Q.** How did the z-score turn out when `CCOC(=O)N1CCN(C(=O)Nc2ccccc2Cl)CC1` was run?
**A.** 0.551

**Q.** `NS(=O)(=O)c1ccc(CCNC(=O)CCC2COc3ccccc3O2)cc1` (stereo not drawn) was tested. Which z-score did it give?
**A.** 0.237

**Q.** Which z-score does the source give for `CC(C)Cc1csc(NC(=O)c2ccc(Cl)cc2)c1C(=O)O` here?
**A.** 0.364

**Q.** `CCN(CC)CCNC(=O)CCCCCn1c(=O)[nH]c2cc(C(=O)OC)ccc2c1=O` was tested. Which z-score did it give?
**A.** 0.0626

**Q.** For `Nn1c(N2CCCCC2)nc2ccccc21`, which z-score is on record?
**A.** -0.0787

**Q.** Which z-score does the source give for `C=CCNC(=O)c1cc(-c2ccc(Br)cc2)on1` here?
**A.** 1.05

**Q.** Which z-score does the source give for `O=C(CCSc1nc2ccccc2o1)N1CCOCC1` here?
**A.** -0.0875

**Q.** How did the z-score turn out when `CCC(C)[C@H](NC(=O)OC(C)(C)C)C(=O)N/N=C/C1=Cc2ccccc2OC1` (stereo partly drawn) was run?
**A.** -0.478

**Q.** With `O=C(CCc1nc(-c2ccc(Cl)cc2)no1)OCc1ccc(Br)cc1` as the compound, how does the z-score read?
**A.** -0.0119

**Q.** How did the z-score turn out when `CN1CCN(NC(=O)c2ccc(Cl)c([N+](=O)[O-])c2)CC1` was run?
**A.** 0.18

**Q.** Which z-score does the source give for `Cc1csc(CCc2nc(C)cs2)n1` here?
**A.** -0.221

**Q.** With `O=C(CCCn1c(SCC(=O)c2ccc(F)cc2)nc2ccccc2c1=O)NCc1ccccc1` as the compound, how does the z-score read?
**A.** -0.422

**Q.** With `O=C(N/N=C/C=C/c1ccccc1[N+](=O)[O-])c1cccs1` as the compound, how does the z-score read?
**A.** -0.256

**Q.** `C=CCNC(=S)Nc1sc2c(c1C(=O)OCC)CC(C(C)C)OC2` (stereo not drawn) was tested. Which z-score did it give?
**A.** active: 8.63

**Q.** `CC(=O)NS(=O)(=O)c1ccc(NC(=O)c2ccccc2F)cc1` was tested. Which z-score did it give?
**A.** -0.204

**Q.** With `CCCCOc1ccc(CSCCNC(=S)Nc2ccccc2)cc1` as the compound, how does the z-score read?
**A.** -0.195

**Q.** With `Cc1nn(-c2ccccc2)c(N2CCCC2)c1/C=N/O` as the compound, how does the z-score read?
**A.** -0.102

**Q.** With `O=C(Nc1ccc(Br)cc1F)c1ccc2c(c1)N(Cc1ccccc1)C(=O)CS2=O` (stereo not drawn) as the compound, how does the z-score read?
**A.** 1.3

**Q.** With `O=C(Nc1ccc2c(c1)OCCO2)c1ccc2nccnc2c1` as the compound, how does the z-score read?
**A.** 0.215

**Q.** Which z-score does the source give for `O=c1cc(N2CCN(Cc3ccccc3)CC2)[nH]c(=O)n1Cc1ccc(F)cc1` here?
**A.** -0.132

**Q.** Which z-score does the source give for `CSc1nc2ccccc2cc1/C=C(\C#N)c1ccc(Cl)c(Cl)c1` here?
**A.** -0.229

**Q.** For `CC(C)(C)c1nc2ccccc2c2nnc(SCC(=O)Nc3nc4ccccc4s3)n12`, which z-score is on record?
**A.** -0.287

**Q.** How did the z-score turn out when `N/C(=N\OC(=O)N1c2ccccc2Sc2ccccc21)c1ccccc1` was run?
**A.** -0.247

**Q.** With `Cc1c(NC(=O)c2ccc(=O)oc2)c(=O)n(-c2ccccc2)n1C` as the compound, how does the z-score read?
**A.** -0.416

**Q.** For `CCc1ccc2nc(N3CCN(C)CC3)c(C#N)cc2c1`, which z-score is on record?
**A.** -0.507

**Q.** For `CC(C)CC(=O)NC(NCC1CCCO1)C(Cl)(Cl)Cl` (stereo not drawn), which z-score is on record?
**A.** 0.0987

**Q.** Which z-score does the source give for `NS(=O)(=O)c1ccc(NC(=O)COC(=O)C23CC4CC(CC(C4)C2)C3)cc1` here?
**A.** 0.81

**Q.** Which z-score does the source give for `CCN(CC)CC#CCC(O)(c1ccccc1)C1CCCC1` (stereo not drawn) here?
**A.** 0.508

**Q.** With `CCN(CC)S(=O)(=O)c1cccc(C(=O)N/N=C/c2cccc(O)c2O)c1` as the compound, how does the z-score read?
**A.** 0.294

**Q.** `Cc1cnc(NC(=O)c2cc3c(C)nn(Cc4ccccc4Cl)c3s2)s1` was tested. Which z-score did it give?
**A.** -0.311

**Q.** With `CCOC(=O)C1CCN(C(=O)Cc2ccc(C)cc2)CC1` as the compound, how does the z-score read?
**A.** -0.832

**Q.** For `CC(C)=CC(=O)N1CCCc2ccccc21`, which z-score is on record?
**A.** 0.23

**Q.** `O=C(CCN1C(=O)/C(=C\c2cccs2)SC1=S)Nc1nccs1` was tested. Which z-score did it give?
**A.** -0.437

**Q.** For `CC1CN(C(=O)c2ccccc2)C(=Nc2cccc(S(=O)(=O)N(C)C)c2)S1` (stereo not drawn), which z-score is on record?
**A.** 0.0788

**Q.** How did the z-score turn out when `CCn1cc(C2=NCCO2)c2ccccc21` was run?
**A.** 2.2

**Q.** With `Brc1ccccc1-c1nc(-c2ccccc2)no1` as the compound, how does the z-score read?
**A.** 0.0313

**Q.** With `Cc1cccc(C)c1NCc1nnc(SCC(=O)Nc2nc(-c3ccccc3)cs2)n1-c1ccccc1` as the compound, how does the z-score read?
**A.** -0.26

**Q.** How did the z-score turn out when `O=[N+]([O-])c1cc(Cc2ccccc2)cc(C=Nc2ccc(N3CCOCC3)cc2)c1O` was run?
**A.** -1.16

**Q.** With `Cc1noc(C)c1C(=O)Nc1ccc(Cl)cc1C(F)(F)F` as the compound, how does the z-score read?
**A.** -1.87

**Q.** For `O=C(NCCNC(=O)c1cc(OCC(F)(F)F)ccc1OCC(F)(F)F)Nc1ccccc1`, which z-score is on record?
**A.** -0.426

**Q.** With `O=C(CNC(=O)c1ccc(Br)o1)NCc1ccc2c(c1)OCO2` as the compound, how does the z-score read?
**A.** 0.352

**Q.** How did the z-score turn out when `Cn1cccc1CC(=O)N/N=C\c1cccs1` was run?
**A.** -0.133
